# Data: the supplement of paper PMC3334620
# Over roughly 33,000 sequences, “E-score (-0.5 to 0.5)” has its median near -0.017; the highest 2% begin near 0.3. The list shows a part of the results.
# Target: T1, Sut1 (UniProt P53032)
# T1 sequence: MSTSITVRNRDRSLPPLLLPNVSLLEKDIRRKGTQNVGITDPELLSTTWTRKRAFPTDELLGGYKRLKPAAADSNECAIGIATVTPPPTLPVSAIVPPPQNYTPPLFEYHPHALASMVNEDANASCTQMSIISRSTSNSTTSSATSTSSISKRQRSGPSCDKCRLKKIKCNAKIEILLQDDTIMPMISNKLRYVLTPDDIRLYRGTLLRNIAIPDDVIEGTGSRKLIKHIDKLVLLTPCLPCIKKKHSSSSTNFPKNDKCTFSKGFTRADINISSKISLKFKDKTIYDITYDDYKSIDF
# Assay: PBM E-score (8-mer binding enrichment) (E-score (-0.5 to 0.5)); higher = stronger / more preferred TF binding; most listed sequences are background and not binding sites
# Conditions: protein concentration: 200 nM; construct: GST-full length
# Method in brief: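 Full-length yeast transcription factors or their DNA-binding domains, GST-tagged and expressed with PURExpress, were applied at about 100-200 nM to universal all-10-mer Agilent arrays. These arrays had been made double-stranded by primer extension on fresh or once-stripped slides. Detection used fluorescent anti-GST, normalisation used masliner, and E-scores for ungapped eight-base words pooled with reverse complements came from the Universal PBM Analysis Suite.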
row,Sequence,PBM E-score
1,ATGTCTTG,0.00936
2,TACGATCA,0.0937
3,GCGCAAGA,-0.0208
4,CCCTGAAC,-0.0717
5,GACTCTTA,0.105
6,CTCTGAGA,-0.0987
7,CCATGGCC,-0.313
8,CATCCAGC,-0.174
9,GGCGGAAC,-0.0912
10,AGGCGTCC,-0.117
11,GAGCTAGA,-0.0226
12,AACAAAAG,0.217
13,AGACCTAT,0.0655
14,CCTATTGA,0.101
15,AAGCCCAT,-0.187
16,AACATCAT,-0.0156
17,AAGGCCAA,-0.21
18,GCTCACCC,-0.144
19,CTGCCTTC,0.00298
20,GATGAGAC,0.0573
21,CTTACTAA,0.0616
22,CGCGAAAG,-0.0215
23,CGGGTCAG,0.0298
24,ACTAACCC,0.00259
25,GACGGAGA,0.277

row,Sequence,PBM E-score
1,TCGTGTAA,0.0513
2,AGTCATCG,-0.0677
3,ATTGCCCA,-0.133
4,CTGAGAAG,-0.0719
5,TGACGCCA,-0.149
6,CATATGGA,-0.00932
7,CCTACACC,-0.128
8,GCCTTAGA,-0.264
9,GAGCCGAC,-0.315
10,CGCCTATA,-0.0666
11,AAATTAAT,0.292
12,AGCTCTGC,-0.337
13,TGTACAAA,0.129
14,CTGTATAA,0.164
15,AGAGTTAG,0.0158
16,AATGTAGA,0.237
17,AGCTTGCG,-0.265
18,ATTCATAG,0.132
19,CCGGAGCA,0.307
20,ACCGAACA,0.121
21,CAATTGGC,-0.0753
22,GCTTGTAC,-0.0476
23,TCCATTAA,0.11
24,GCGCCAGA,-0.088
25,TTAGCAAA,0.178

row,Sequence,PBM E-score
1,GTATCCAC,-0.103
2,AAAGTGCG,0.19
3,GACATAGA,-0.0501
4,TACCGCCA,0.00318
5,CGTATGCC,-0.114
6,CTCAAAAG,-0.0421
7,TGTAATAA,0.315
8,CGCGTTCC,-0.0272
9,ATTCGACC,-0.193
10,AACCTGTC,-0.187
11,CTGATGAA,-0.0846
12,AGTTGGGA,-0.0611
13,ATAGCCAT,-0.0463
14,GAGTGAGA,0.197
15,ATAGCTCG,-0.135
16,ACGACACA,-0.0399
17,CTACCAGA,0.0705
18,CGCAGCCA,-0.117
19,ATGCGTAC,0.0945
20,TCACAAGA,-0.00052
21,CGCCGAAC,0.215
22,GTTTGCGA,0.106
23,ATAACCGA,0.178
24,CAAGGTGA,-0.137
25,ATATGTCA,0.0284

row,Sequence,PBM E-score
1,GCAGTGCC,-0.197
2,CGGCAGAA,-0.0911
3,GGTCACGA,-0.0666
4,TGGAACCA,-0.0524
5,CAGCGAGG,-0.225
6,AAACGATT,0.231
7,GCATCTGA,-0.204
8,CAAGTAAG,0.0132
9,ACGAACCA,0.222
10,CCATTTGC,0.0098
11,AGATTCCT,-0.0965
12,GCCTATAC,-0.171
13,CAAAGCTC,-0.148
14,GAGTAGAC,0.0758
15,CCAAACAG,-0.205
16,AGTGACAT,0.089
17,GCCAGGAA,-0.164
18,GAGCGCTA,-0.0699
19,AACGTAGG,-0.171
20,AACACGTA,0.191
21,GACCGTCC,-0.0565
22,CCATAGAC,-0.155
23,GTTATCCA,0.154
24,AATTCATA,0.209
25,CCAGTTAA,0.16

row,Sequence,PBM E-score
1,ACTCTGCC,-0.0777
2,CTGTTTAC,0.126
3,CTCCTAAC,-0.174
4,ACCGAGAA,0.229
5,ACGCACTG,-0.139
6,AAAAGACA,0.157
7,CCACGCGG,-0.0774
8,CCCATTAA,-0.0707
9,GAGTGGGA,0.0811
10,CATGGAAA,0.251
11,ACAGCAGG,-0.0678
12,AATCATCA,0.0376
13,ATGACGGA,0.252
14,GAAGCATA,0.0407
15,GCTATTTA,0.159
16,GAGACGGC,-0.113
17,CGGCACCA,-0.0188
18,CTATGTAC,-0.0441
19,AACTAATC,0.119
20,GGATCAGA,-0.0639
21,AATACCAA,0.214
22,GATTAAGA,0.199
23,AATATATC,0.322
24,AGGAAAAT,0.151
25,ATTACCAC,0.0799

row,Sequence,PBM E-score
1,AACTGACA,-0.137
2,GAAGCTTA,0.0895
3,TCTTTTCA,0.178
4,GAACGGTC,-0.228
5,AAGCCATA,-0.114
6,ACGCTCCC,-0.22
7,GGCTTTAC,0.113
8,ACCGGAGT,0.492
9,GACCACTA,0.0285
10,AATAGACA,0.0476
11,AAATTGCG,0.115
12,CTCTATGA,0.0486
13,AGGAGAAA,0.0526
14,GTGTACAA,0.0787
15,CTCTTAGC,-0.0725
16,ATGAACTC,-0.00357
17,ATCAGTCA,0.0575
18,GAATAACA,0.261
19,ATCTAGAT,0.043
20,ACAAGTCC,0.374
21,AGGTTTGG,-0.0802
22,CAGTGCCA,-0.284
23,GAAGGGTC,-0.121
24,GCCCTTAA,-0.153
25,CGACATCA,0.143

row,Sequence,PBM E-score
1,AGCGGCGC,-0.00117
2,AGATAGTA,0.225
3,GGGAGCCA,-0.238
4,GTGATCCA,-0.0945
5,GAACTACA,0.0512
6,CACTCGTC,-0.166
7,AGACATAT,0.169
8,AAAGCCGG,0.0415
9,CATCACAA,0.0759
10,TATCGCCA,0.0664
11,CCCGACGG,-0.0115
12,ATAAGTTC,0.261
13,ACAAGTCT,-0.161
14,TATCGACA,-0.063
15,CTAAGGGA,-0.102
16,TACGTGAA,-0.0149
17,AGCGGTCC,0.0314
18,AATGCCTG,-0.076
19,CTACTCAG,-0.195
20,GCGGCCTA,-0.238
21,CATGCCAC,-0.128
22,AACAAGAG,0.0573
